Experimental data reported in the supplement of paper PMC8728848.
This is one part of the list.

Key:
Experiment in all cases: glycan array binding signal (z-score within array); higher = stronger binding
Details in all cases: glycan notation: IUPAC condensed, linker removed
HexA2S(a1-4)GlcNS6S = molecular target: HexA2S(a1-4)GlcNS6S
In short: (§1)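 The Consortium for Functional Glycomics database supplied 3228 glycan arrays, of which those lacking an available protein sequence were dropped. The binding signal, a within-array Z-score, was averaged across arrays of the same protein sequence and across linkers. Negative scores can be read as non-binding.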

[1] = molecular target: Kdn(a2-3)[GalNAc(b1-4)]Gal(b1-3)GlcNAc
In short: as §1

Man(a1-2)Man = molecular target: Man(a1-2)Man
In short: as §1

[2] = molecular target: Man(a1-2)Man(a1-2)Man(a1-3)[Man(a1-2)Man(a1-3)[Man(a1-2)Man(a1-6)]Man(a1-6)]Man(b1-4)GlcNAc(b1-4)GlcNAc
In short: as §1

[3] = molecular target: Man(a1-2)Man(a1-2)Man(a1-3)[Man(a1-2)Man(a1-6)[Man(a1-3)]Man(a1-6)]Man(b1-4)GlcNAc(b1-4)GlcNAc
In short: as §1

[4] = molecular target: Man(a1-2)Man(a1-2)Man(a1-3)[Man(a1-3)[Man(a1-6)]Man(a1-6)]Man(b1-4)GlcNAc(b1-4)GlcNAc
In short: as §1

[5] = molecular target: Man(a1-2)Man(a1-3)[Man(a1-2)Man(a1-6)[Man(a1-3)]Man(a1-6)]Man(b1-4)GlcNAc(b1-4)GlcNAc
In short: as §1

[6] = molecular target: Man(a1-2)Man(a1-3)[Man(a1-3)[Man(a1-6)]Man(a1-6)]Man(b1-4)GlcNAc(b1-4)GlcNAc
In short: as §1

Man(a1-3)Man = molecular target: Man(a1-3)Man
In short: as §1

[7] = molecular target: Man(a1-3)Man(a1-6)[Man(a1-3)]Man(b1-4)GlcNAc(b1-4)GlcNAc
In short: as §1

Man(a1-3)Man(b1-4)GlcNAc = molecular target: Man(a1-3)Man(b1-4)GlcNAc
In short: as §1

Man(a1-3)[Man(a1-6)]Man = molecular target: Man(a1-3)[Man(a1-6)]Man
In short: as §1

[8] = molecular target: Man(a1-3)[Man(a1-6)]Man(a1-6)Man(b1-4)GlcNAc(b1-4)GlcNAc
In short: as §1

[9] = molecular target: Man(a1-3)[Man(a1-6)]Man(a1-6)[Man(a1-3)]Man
In short: as §1

[10] = molecular target: Man(a1-3)[Man(a1-6)]Man(a1-6)[Man(a1-3)]Man(b1-4)GlcNAc(b1-4)GlcNAc
In short: as §1

[11] = molecular target: Man(a1-3)[Man(a1-6)]Man(b1-4)GlcNAc(b1-4)GlcNAc
In short: as §1

[12] = molecular target: Man(a1-3)[Man(a1-6)]Man(b1-4)GlcNAc(b1-4)[Fuc(a1-6)]GlcNAc
In short: as §1

Man(a1-6)Man = molecular target: Man(a1-6)Man
In short: as §1

[13] = molecular target: Man(a1-6)Man(b1-4)GlcNAc(b1-4)GlcNAc
In short: as §1

Man(b1-4)GlcNAc = molecular target: Man(b1-4)GlcNAc
In short: as §1

[14] = molecular target: Man(b1-4)Man(b1-4)Man(b1-4)Man
In short: as §1

[15] = molecular target: Man(b1-4)Man(b1-4)Man(b1-4)Man(b1-4)Man
In short: as §1

[16] = molecular target: Man(b1-4)Man(b1-4)Man(b1-4)Man(b1-4)Man(b1-4)Man
In short: as §1

[17] = molecular target: Man6P(a1-3)Man(a1-3)Man(a1-3)Man(a1-2)Man
In short: as §1

Neu(a2-3)Gal(b1-4)Glc = molecular target: Neu(a2-3)Gal(b1-4)Glc
In short: as §1

[18] = molecular target: Neu(a2-3)Gal(b1-4)GlcNAc(b1-3)Gal(b1-4)[Fuc(a1-3)]GlcNAc(b1-3)Gal(b1-4)Glc
In short: as §1

[19] = molecular target: Neu(a2-3)Gal(b1-4)GlcNAc6S(b1-3)Gal(b1-4)Glc
In short: as §1

[20] = molecular target: Neu(a2-3)Gal(b1-4)[Fuc(a1-3)]GlcNAc(b1-3)Gal(b1-4)Glc
In short: as §1

[21] = molecular target: Neu(a2-3)Gal(b1-4)[Fuc(a1-3)]GlcNAc6S(b1-3)Gal(b1-4)Glc
In short: as §1

[22] = molecular target: Neu(a2-3)Gal6S(b1-4)[Fuc(a1-3)]GlcN(b1-3)Gal(b1-4)Glc
In short: as §1

Neu(a2-6)Gal(b1-4)Glc = molecular target: Neu(a2-6)Gal(b1-4)Glc
In short: as §1

[23] = molecular target: Neu4Ac5Ac(a2-3)Gal(b1-4)Glc
In short: as §1

Neu5Ac(a2-3)Gal = molecular target: Neu5Ac(a2-3)Gal
In short: as §1

[24] = molecular target: Neu5Ac(a2-3)Gal(b1-3)GalNAc(b1-4)Gal(b1-4)Glc
In short: as §1

[25] = molecular target: Neu5Ac(a2-3)Gal(b1-3)GalNAc(b1-4)[Neu5Ac(a2-3)]Gal(b1-4)Glc
In short: as §1

[26] = molecular target: Neu5Ac(a2-3)Gal(b1-3)GalNAc(b1-4)[Neu5Ac(a2-8)Neu5Ac(a2-3)]Gal(b1-4)Glc
In short: as §1

[27] = molecular target: Neu5Ac(a2-3)Gal(b1-3)GlcNAc(b1-3)Gal(b1-4)Glc
In short: as §1

[28] = molecular target: Neu5Ac(a2-3)Gal(b1-3)GlcNAc(b1-3)[Fuc(a1-3)[Gal(b1-4)]GlcNAc(b1-6)]Gal(b1-4)Glc
In short: as §1

[29] = molecular target: Neu5Ac(a2-3)Gal(b1-3)[Fuc(a1-4)]GlcNAc
In short: as §1

[30] = molecular target: Neu5Ac(a2-3)Gal(b1-3)[Fuc(a1-4)]GlcNAc(b1-3)Gal(b1-4)Glc
In short: as §1

[31] = molecular target: Neu5Ac(a2-3)Gal(b1-3)[Neu5Ac(a2-6)]GalNAc
In short: as §1

[32] = molecular target: Neu5Ac(a2-3)Gal(b1-3)[Neu5Ac(a2-6)]GlcNAc(b1-3)Gal(b1-4)Glc
In short: as §1

Neu5Ac(a2-3)Gal(b1-4)Glc = molecular target: Neu5Ac(a2-3)Gal(b1-4)Glc
In short: as §1

[33] = molecular target: Neu5Ac(a2-3)Gal(b1-4)GlcNAc
In short: as §1

[34] = molecular target: Neu5Ac(a2-3)Gal(b1-4)GlcNAc(b1-2)Man(a1-3)[Neu5Ac(a2-3)Gal(b1-4)GlcNAc(b1-2)Man(a1-6)]Man(b1-4)GlcNAc(b1-4)[Fuc(a1-6)]GlcNAc
In short: as §1

B1: CLECSF8 (Mus musculus), Q9Z2H6 (protein)
chain: HYFLRWTRGSVVKLSDYHTRVTCIREEPQPGATGGTWTCCPVSWRAFQSNCYFPLNDNQTWHESERNCSGMSSHLVTINTEAEQNFVTQLLDKRFSYFLGLADENVEGQWQWVDKTPFNPHTVFWEKGESNDFMEEDCVVLVHVHEKWVWNDFPCHFEVRRICKLPGITFNWKPSK
B1 was tested, and the “glycan array binding signal (z-score)” value (HexA2S(a1-4)GlcNS6S) was -0.424, the “glycan array binding signal (z-score)” value [1] was -0.424 and the “glycan array binding signal (z-score)” value (Man(a1-2)Man) was 1. For the same binder, the “glycan array binding signal (z-score)” value [2] was -0.424, the “glycan array binding signal (z-score)” value [3] was -0.424 and the “glycan array binding signal (z-score)” value [4] was -0.424. The “glycan array binding signal (z-score)” value [5] was -0.424, the “glycan array binding signal (z-score)” value [6] was -0.424 and the “glycan array binding signal (z-score)” value (Man(a1-3)Man) was 0.873. For the same binder, the “glycan array binding signal (z-score)” value [7] was -0.424, the “glycan array binding signal (z-score)” value (Man(a1-3)Man(b1-4)GlcNAc) was 3.04 and the “glycan array binding signal (z-score)” value (Man(a1-3)[Man(a1-6)]Man) was 1.89. For the same binder, the “glycan array binding signal (z-score)” value [8] was -0.424, the “glycan array binding signal (z-score)” value [9] was 4.16 and the “glycan array binding signal (z-score)” value [10] was -0.424. The “glycan array binding signal (z-score)” value [11] was -0.424, the “glycan array binding signal (z-score)” value [12] was -0.424 and the “glycan array binding signal (z-score)” value (Man(a1-6)Man) was 1.46. For the same binder, the “glycan array binding signal (z-score)” value [13] was -0.424, the “glycan array binding signal (z-score)” value (Man(b1-4)GlcNAc) was -0.424 and the “glycan array binding signal (z-score)” value [14] was 1.07. For the same binder, the “glycan array binding signal (z-score)” value [15] was 1.46, the “glycan array binding signal (z-score)” value [16] was 1.18 and the “glycan array binding signal (z-score)” value [17] was -0.424. The “glycan array binding signal (z-score)” value (Neu(a2-3)Gal(b1-4)Glc) was -0.424, the “glycan array binding signal (z-score)” value [18] was -0.424 and the “glycan array binding signal (z-score)” value [19] was 1.14. For the same binder, the “glycan array binding signal (z-score)” value [20] was -0.424, the “glycan array binding signal (z-score)” value [21] was 0.763 and the “glycan array binding signal (z-score)” value [22] was -0.424. The “glycan array binding signal (z-score)” value (Neu(a2-6)Gal(b1-4)Glc) was -0.424, the “glycan array binding signal (z-score)” value [23] was 0.312 and the “glycan array binding signal (z-score)” value (Neu5Ac(a2-3)Gal) was -0.424. The “glycan array binding signal (z-score)” value [24] was -0.424, the “glycan array binding signal (z-score)” value [25] was -0.424 and the “glycan array binding signal (z-score)” value [26] was -0.424. The “glycan array binding signal (z-score)” value [27] was -0.424, the “glycan array binding signal (z-score)” value [28] was -0.424 and the “glycan array binding signal (z-score)” value [29] was -0.424. For the same binder, the “glycan array binding signal (z-score)” value [30] was -0.424, the “glycan array binding signal (z-score)” value [31] was -0.424 and the “glycan array binding signal (z-score)” value [32] was -0.424. The “glycan array binding signal (z-score)” value (Neu5Ac(a2-3)Gal(b1-4)Glc) was -0.253, the “glycan array binding signal (z-score)” value [33] was -0.424 and the “glycan array binding signal (z-score)” value [34] was -0.424.
